One test relates to RS4;11 cells. Description: cells. Conditions: Homo sapiens.
The subject of another test is Molt-4 cells. The test can be described thus: cells. Conditions: Homo sapiens.
Where [1] appears, read: RS4-11, 48 h, read-out: Cellular activity (IC50, nM) RS4;11.
The mark [2] stands for this setting: MOLT-4, read-out: Cellular activity (IC50, nM) Molt-4.
[3] abbreviates: RS4-11, 48 h, read-out: Cellular activity (IC50, nM) RS4, 11.

Molecules are shown by their SMILES. Like-named read-outs stand apart in the source and are kept apart here.

As usually defined, the IC50 is the point on the concentration scale where inhibition reaches its midpoint.

For the molecule `CN1CC=C(c2ccccc2[C@H]2CCCN2c2ccc(-c3ccc(C(=O)NS(=O)(=O)c4ccc(NCC5CCOCC5)c([N+](=O)[O-])c4)c(Oc4cnc5[nH]ccc5c4)c3)cc2)CC1` [Example A68-R, (R)-3-((1H-pyrrolo[2,3-b]pyridin-5-yl)oxy)-4′-(2-(2-(1-methyl-1,2,3,6-tetrahydropyridin-4-yl)phenyl)pyrrolidin-1-yl)-N-((3-nitro-4-(((tetrahydro-2H-pyran-4-yl)methyl)amino)phenyl)sulfonyl)-[1,1′-biphenyl]-4-carboxamide], the half-maximal inhibitory concentration (IC50) was 10 nM with RS4;11 cells (setting [1]) and 5240 nM in the test with Molt-4 cells (setting [2]).

For the molecule `CC1(C)CCN(c2ccc(-c3ccc(C(=O)NS(=O)(=O)c4ccc(NCC5CCOCC5)c([N+](=O)[O-])c4)c(Oc4cnc5[nH]ccc5c4)c3)cc2)C1c1ccccc1C1CC1` (stereo not shown) [Example A77, 3-((1H-pyrrolo[2,3-b]pyridin-5-yl)oxy)-4′-(2-(2-cyclopropylphenyl)-3,3-dimethylpyrrolidin-1-yl)-N-((3-nitro-4-(((tetrahydro-2H-pyran-4-yl)methyl)amino)phenyl)sulfonyl)-[1,1′-biphenyl]-4-carboxamide], the IC50 with RS4;11 cells (setting [3]) came out at 55 nM; in the test with Molt-4 cells (setting [2]), 1860 nM.

For the molecule `O=C(NS(=O)(=O)c1ccc(NCC2CCOCC2)c([N+](=O)[O-])c1)c1ccc(C2=CCC(N3CC(F)CC3c3ccccc3C3CC3)CC2)cc1Oc1cnc2[nH]ccc2c1` (stereo not shown) [Example C89, 3-((1H-pyrrolo[2,3-b]pyridin-5-yl)oxy)-4′-(2-(2-Cyclopropylphenyl)-4-fluoropyrrolidin-1-yl)-N-((3-nitro-4-(((tetrahydro-2H-pyran-4-yl)methyl)amino)phenyl)sulfonyl)-2′,3′,4′,5′-tetrahydro-[1,1′-biphenyl]-4-carboxamide], the values for the half-inhibitory concentration (IC50) in the test with RS4;11 cells (setting [3]) and in the test with Molt-4 cells (setting [2]) were 328 nM and 7610 nM, respectively.

For the molecule `O=C(NS(=O)(=O)c1ccc(NCC2CCOCC2)c([N+](=O)[O-])c1)c1ccc(-c2ccc(N3C[C@@H](F)C[C@@H]3c3ccccc3C3CC3)cc2)cc1Oc1cnc2[nH]ccc2c1` (single isomer, unassigned) [Example A145a, 3-((1H-pyrrolo[2,3-b]pyridin-5-yl)oxy)-4′-((2R,4S) or (2S,4R)-2-(2-cyclopropylphenyl)-4-fluoropyrrolidin-1-yl)-N-((3-nitro-4-(((tetrahydro-2H-pyran-4-yl)methyl)amino)phenyl)sulfonyl)-[1,1′-biphenyl]-4-carboxamide], the IC50 amounted to 79 nM in the test on RS4;11 cells (setting [1]) and 5960 nM with Molt-4 cells (setting [2]).

On to `O=C(NS(=O)(=O)c1ccc(NCC2CCC(O)(C(F)(F)F)CC2)c([N+](=O)[O-])c1)c1ccc(N2CCC3(CC2)CC(N2CCC[C@H]2c2ccccc2C2CC2)C3)cc1Oc1cnc2[nH]ccc2c1` (stereo partly drawn) [Example F100, (S)-2-((1H-pyrrolo[2,3-b]pyridin-5-yl)oxy)-4-(2-(2-(2-cyclopropylphenyl)pyrrolidin-1-yl)-7-azaspiro[3.5]nonan-7-yl)-N-((4-(((4-hydroxy-4-(trifluoromethyl)cyclohexyl)methyl)amino)-3-nitrophenyl)sulfonyl)benzamide], for which the IC50 in the test on RS4;11 cells (setting [1]) stood at 6.4 nM; in the test on Molt-4 cells (setting [2]), 7030 nM.

As to `CN1CC=C(c2ccccc2C2CCCN2C2CC=C(c3ccc(C(=O)NS(=O)(=O)c4ccc(NCC5CCOCC5)c([N+](=O)[O-])c4)c(Oc4cnc5[nH]ccc5c4)c3)CC2)CC1` (stereo not shown) [Example C175, 3-((1H-pyrrolo[2,3-b]pyridin-5-yl)oxy)-4′-(2-(2-(1-methyl-1,2,3,6-tetrahydropyridin-4-yl)phenyl)pyrrolidin-1-yl)-N-((3-nitro-4-(((tetrahydro-2H-pyran-4-yl)methyl)amino)phenyl)sulfonyl)-2′,3′,4′,5′-tetrahydro-[1,1′-biphenyl]-4-carboxamide], the half-maximal inhibitory concentration (IC50) is 476 nM in the test on RS4;11 cells (setting [3]) and above 10000 nM in the test with Molt-4 cells (setting [2]).

As to `C[C@]1(O)CC[C@H](CNc2ccc(S(=O)(=O)NC(=O)c3ccc(N4CCC5(CC4)CC(N4CC(C(F)(F)F)CC4c4ccccc4C4CC4)C5)cc3Oc3cnc4[nH]ccc4c3)cc2[N+](=O)[O-])CC1` (stereo partly shown) [Example F84, 2-((1H-pyrrolo[2,3-b]pyridin-5-yl)oxy)-4-(2-(2-(2-cyclopropylphenyl)-4-(trifluoromethyl)pyrrolidin-1-yl)-7-azaspiro[3.5]nonan-7-yl)-N-((4-((((1r,4r)-4-hydroxy-4-methylcyclohexyl)methyl)amino)-3-nitrophenyl)sulfonyl)benzamide], the values for the half-maximal inhibitory concentration (IC50) with RS4;11 cells (setting [1]) and in the test with Molt-4 cells (setting [2]) were 44 nM and 2230 nM, respectively.

On to `O=C(NS(=O)(=O)c1ccc(NCC2CCOCC2)c([N+](=O)[O-])c1)c1ccc(-c2ccc(N3C[C@H](F)C[C@H]3c3ccccc3C3CC3)cc2)cc1Oc1cnc2[nH]ccc2c1` (single isomer, unassigned) [Example A145b, 3-((1H-pyrrolo[2,3-b]pyridin-5-yl)oxy)-4′-((2S,4R) or (2R,4S)-2-(2-cyclopropylphenyl)-4-fluoropyrrolidin-1-yl)-N-((3-nitro-4-(((tetrahydro-2H-pyran-4-yl)methyl)amino)phenyl)sulfonyl)-[1,1′-biphenyl]-4-carboxamide], for which the 50% inhibitory concentration (IC50) in the test with RS4;11 cells (setting [1]) is 36 nM; with Molt-4 cells (setting [2]), 3490 nM.

Turning to `O=C(NS(=O)(=O)c1ccc(NCC2CCOCC2)c([N+](=O)[O-])c1)c1ccc(-c2ccc(N3C[C@H](F)C[C@@H]3c3ccccc3C3CC3)cc2)cc1Oc1cnc2[nH]ccc2c1` (single isomer, unassigned) [Example A145c, 3-((1H-pyrrolo[2,3-b]pyridin-5-yl)oxy)-4′-((2R,4R) or (2S,4S)-2-(2-cyclopropylphenyl)-4-fluoropyrrolidin-1-yl)-N-((3-nitro-4-(((tetrahydro-2H-pyran-4-yl)methyl)amino)phenyl)sulfonyl)-[1,1′-biphenyl]-4-carboxamide], the IC50 in the test with RS4;11 cells (setting [1]) came out at 6.8 nM; with Molt-4 cells (setting [2]), 782 nM.

Consider `C[C@]1(O)CC[C@H](CNc2ccc(S(=O)(=O)NC(=O)c3ccc(C4=CCC(N5CCCC5c5cccc(Cl)c5C5CC5)CC4)cc3Oc3cnc4[nH]ccc4c3)cc2[N+](=O)[O-])CC1` (stereo partly shown) [Example G106, 3-((1H-pyrrolo[2,3-b]pyridin-5-yl)oxy)-4′-(2-(3-chloro-2-cyclopropylphenyl)pyrrolidin-1-yl)-N-((4-((((1r,4r)-4-hydroxy-4-methylcyclohexyl)methyl)amino)-3-nitrophenyl)sulfonyl)-2′,3′,4′,5′-tetrahydro-[1,1′-biphenyl]-4-carboxamide], for which the half-inhibitory concentration (IC50) in the test with RS4;11 cells (setting [3]) stood at 15 nM; in the test with Molt-4 cells (setting [2]), 3170 nM.

For `CC(C)c1ccccc1[C@@H]1CCCN1C1CC2(CCN(c3ccc(C(=O)NS(=O)(=O)c4ccc(NCC5(F)CCOCC5)c([N+](=O)[O-])c4)c(Oc4cnc5[nH]ccc5c4)c3)CC2)C1` [Example F46], the IC50 worked out at 0.4 nM in the test on RS4;11 cells (setting [1]); 0.4 nM in the test on RS4;11 cells (RS4-11, read-out: Celluclar activity (IC50, nM) RS 4, 11); 2850 nM in the test with Molt-4 cells (MOLT-4, read-out: Celluclar activity (IC50, nM) Molt-4); 2850 nM in the test with Molt-4 cells (setting [2]).

`CN(C)CCOc1ccccc1C1CCCN1c1ccc(-c2ccc(C(=O)NS(=O)(=O)c3ccc(NCC4CCOCC4)c([N+](=O)[O-])c3)c(Oc3cnc4[nH]ccc4c3)c2)cc1` (stereo not shown) [Example A127, 3-((1H-pyrrolo[2,3-b]pyridin-5-yl)oxy)-4′-(2-(2-(2-(dimethylamino)ethoxy)phenyl)pyrrolidin-1-yl)-N-((3-nitro-4-(((tetrahydro-2H-pyran-4-yl)methyl)amino)phenyl)sulfonyl)-[l. 1′-biphenyl]-4-carboxamide]: the IC50 in the test with RS4;11 cells (setting [1]) worked out at 32 nM; with Molt-4 cells (setting [2]) it was 4100 nM.

Consider `CN1CCC2(CC1)CN(c1ccccc1[C@H]1CCCN1c1ccc(-c3ccc(C(=O)NS(=O)(=O)c4ccc(NCC5CCOCC5)c([N+](=O)[O-])c4)c(Oc4cnc5[nH]ccc5c4)c3)cc1)C2` [Example A136, (R)-3-((1H-pyrrolo[2,3-b]pyridin-5-yl)oxy)-4′-(2-(2-(7-methyl-2,7-diazaspiro[3,5]nonan-2-yl)phenyl)pyrrolidin-1-yl)-N-((3-nitro-4-(((tetrahydro-2H-pyran-4-yl)methyl)amino)phenyl)sulfonyl)-[1,1′-biphenyl]-4-carboxamide], for which the IC50 with RS4;11 cells (setting [1]) was found to be 3.8 nM; in the test on Molt-4 cells (setting [2]) it was 1410 nM.

As to `O=C(NS(=O)(=O)c1ccc(NCC2CCOCC2)c([N+](=O)[O-])c1)c1ccc(-c2ccc(N3CCC[C@@H]3c3ccccc3C3CCN(CCO)CC3)cc2)cc1Oc1cnc2[nH]ccc2c1` [Example A103, (R)-3-((1H-pyrrolo[2,3-b]pyridin-5-yl)oxy)-4′-(2-(2-(1-(2-hydroxyethyl)piperidin-4-yl)phenyl)pyrrolidin-1-yl)-N-((3-nitro-4-(((tetrahydro-2H-pyran-4-yl)methyl)amino)phenyl)sulfonyl)-[1,1′-biphenyl]-4-carboxamide], the IC50 in the test with RS4;11 cells (setting [1]) is 11 nM; in the test on Molt-4 cells (setting [2]), above 10000 nM.

For `CC(=O)N1CC=C(c2ccccc2[C@H]2CCCN2c2ccc(-c3ccc(C(=O)NS(=O)(=O)c4ccc(NCC5CCOCC5)c([N+](=O)[O-])c4)c(Oc4cnc5[nH]ccc5c4)c3)cc2)CC1` [Example A109, (R)-3-((1H-pyrrolo[2,3-b]pyridin-5-yl)oxy)-4′-(2-(2-(1-acetyl-1,2,3,6-tetrahydropyridin-4-yl)phenyl)pyrrolidin-1-yl)-N-((3-nitro-4-(((tetrahydro-2H-pyran-4-yl)methyl)amino)phenyl)sulfonyl)-[1,1′-biphenyl]-4-carboxamide], the figures for the IC50 in the test with RS4;11 cells (setting [1]) and with Molt-4 cells (setting [2]) were 2.7 nM and 1320 nM, respectively.

For the molecule `CN1CCC(Oc2ccccc2C2CCCN2c2ccc(-c3ccc(C(=O)NS(=O)(=O)c4ccc(NCC5CCOCC5)c([N+](=O)[O-])c4)c(Oc4cnc5[nH]ccc5c4)c3)cc2)C1` (stereo not shown) [Example A132, 3-((1H-pyrrolo[2,3-b]pyridin-5-yl)oxy)-4′-(2-(2-((1-methylpyrrolidin-3-yl)oxy)phenyl)pyrrolidin-1-yl)-N-((3-nitro-4-(((tetrahydro-2H-pyran-4-yl)methyl)amino)phenyl)sulfonyl)-[1,1′-biphenyl]-4-carboxamide], the 50% inhibitory concentration (IC50) worked out at 4.2 nM in the test on RS4;11 cells (setting [1]) and 1990 nM with Molt-4 cells (setting [2]).
